Measurements published in patent US20260166057A1, “1,3,5(10),16-ESTRATETRAEN-3-YL ACETATE FOR USE IN IMPROVING PSYCHOMOTOR OR COGNITIVE PERFORMANCE” (priority 2023, published 2026).

Test system: healthy male volunteers
Test: Reaction Time Test (psychomotor performance) of the RTTET in mentally fatigued men
Assay type: in vivo, human
Conditions: relative to placebo, 9 p.m., midnight and 3 a.m. tests, ETA 1600 ng intranasal, caffeine 400 mg oral

Structure (SMILES) | reaction time (isochronous stimuli) | reaction time (stochastic stimuli)
CC(=O)Oc1ccc2c(c1)CC[C@@H]1[C@@H]2CC[C@]2(C)C=CC[C@@H]12 [ETA, 1,3,5(10),16-Estratetraen-3-yl acetate] | significantly decrease | significantly decrease
Cn1c(=O)c2c(ncn2C)n(C)c1=O [caffeine, reference compound] | significantly decrease | significantly decrease
